Consider 48 compounds from ChEMBL document CHEMBL1201862, “PubChem BioAssay data set” (2004).

Counter-ions that a name gives are not always drawn.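 96-well plates; 48 h exposure; 5 concentrations. Endpoints by linear interpolation between flanking doses. Not reached: highest tested concentration assigned. Here, GI50 denotes the concentration required for 50% inhibition of growth.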 Active and inactive are the calls of the source. Rule as the data show it: active = GI50 up to about 1.1 µM and inactive = higher. A value given as a limit tells only on which side of the number the result lay.

The test system of this assay is NCI-H322M. Kind of assay: NCI tumour cell line growth inhibition, 48 h.
As for `COc1ccc(-c2cc(=O)c3c(OC)c(OC)c(OC)c(OC)c3o2)cc1` [TANGERETIN], the GI50 was inactive: 75.5 µM.
The same measure for `COc1ccc2c(=O)oc3c(OC)cc(CCN(C)C)c4c(=O)oc1c2c34` [TASPINE]: inactive: 8.51 µM; for `Cn1nnc2c(C(N)=O)ncn2c1=O` [TEMOZOLOMIDE]: inactive: > 100 µM; for `COc1cc(-c2oc3c(OC)c(OC)cc(O)c3c(=O)c2OC)ccc1O` [TERNATIN]: inactive: 9.84 µM.
Turning to `CC1(O)CCC(C(C)(C)O)CC1` (stereo not drawn) [TERPIN], the GI50 is inactive: > 100 µM.
For the compound `c1ccc(-c2cccc(-c3ccccn3)n2)nc1` [TERPYRIDINE], the GI50 was active: 0.466 µM.
In the case of `C[C@]12C=CC(=O)C=C1CC[C@@H]1[C@@H]2CC[C@]2(C)OC(=O)CC[C@@H]12` [TESTOLACTONE] it was inactive: > 422 µM.
On to `COc1ccc2c(c1OC)CN1CCc3cc4c(cc3C1C2)OCO4` (stereo not drawn) [TETRAHYDROBERBERINE], for which the GI50 was inactive: > 100 µM.
In the case of `CC(=O)Oc1ccc(O)c(O)c1C/C=C(\C)CC/C=C(\C)CC/C=C(\C)CCC=C(C)C` [TETRAPRENYLPHENOLSUILLIN] it was inactive: 1.84 µM; in that of `O=C(O)CN1CCN(CC(=O)O)CCN(CC(=O)O)CCN(CC(=O)O)CC1` [TETRAXETAN], inactive: > 100 µM.
In the case of `c1ccc(-c2nn(-c3ccccc3)[n+](-c3ccccc3)n2)cc1` [TETRAZOLIUM RED] it was inactive: 19.1 µM.
The same measure for `COc1cc(C[C@H]2c3cc(OC)c(OC)cc3CCN2C)c(Oc2cc3c(cc2OC)-c2c(OC)c(OC)cc4c2[C@H](C3)N(C)CC4)cc1OC` [THALICARPINE]: inactive: 8.39 µM; for `O=C1CCC(N2C(=O)c3ccccc3C2=O)C(=O)N1` (stereo not drawn) [THALIDOMIDE]: inactive: > 100 µM.
`COc1cc2c(cc1O)CCN(C)[C@H]2Cc1ccc(Oc2c(O)c(OC)cc3c2C[C@H]2c4c(c(OC)c(OC)c(OC)c4-3)CCN2C)cc1` [THALIFABERIDINE]: the GI50 is inactive: 5.09 µM.
`Fc1cccc(F)c1C1SCc2nc3ccccc3n21` (stereo not drawn) [THIAZOLOBENZIMIDAZOLE]: the GI50 was inactive: > 100 µM.
With `O=C(O)CS` [THIOGLYCOLIC ACID], the GI50 is inactive: > 100 µM.
`Nc1nc2[nH]cnc2c(=S)[nH]1` [THIOGUANINE]: the GI50 was inactive: 9.2 µM.
For `OC[C@H]1O[C@@H](n2cnc3c(S)ncnc32)[C@H](O)[C@@H]1O` [THIOINOSINE], the GI50 is inactive: > 2500 µM.
For `S=P(N1CC1)(N1CC1)N1CC1` [THIOTEPA], the GI50 is inactive: 238 µM.
In the case of `O=C(Nc1ncc([N+](=O)[O-])s1)c1ccccc1O` [TIZOXANIDE], the GI50 was inactive: 19.8 µM.
In the case of `Nc1ncnc2c1nc(Cl)n2[C@@H]1O[C@@H]2COP(=O)(O)O[C@H]2[C@H]1O` [TOCLADESINE], the GI50 was inactive: 52 µM.
For the compound `C[C@H]1CC[C@]2(NC1)O[C@H]1C[C@H]3[C@@H]4CC[C@H]5C[C@@H](O[C@@H]6O[C@H](CO)[C@H](O[C@@H]7O[C@H](CO)[C@@H](O)[C@H](O[C@@H]8OC[C@@H](O)[C@H](O)[C@H]8O)[C@H]7O[C@@H]7O[C@H](CO)[C@@H](O)[C@H](O)[C@H]7O)[C@H](O)[C@H]6O)CC[C@]5(C)[C@H]4CC[C@]3(C)[C@H]1[C@@H]2C` [TOMATINE], the GI50 was inactive: 1.73 µM.
In the case of `CC[C@@]1(O)C(=O)OCc2c1cc1n(c2=O)Cc2cc3c(CN(C)C)c(O)ccc3nc2-1` [TOPOTECAN HYDROCHLORIDE] it was active: 0.264 µM; in that of `Cc1ccc(S(=O)(=O)N[C@@H](Cc2ccccc2)C(=O)CCl)cc1` [TPCK], inactive: 17 µM.
In the case of `C[C@]12C=CC(=O)C=C1CC[C@H]1[C@@H]3C[C@@H](O)[C@](O)(C(=O)CO)[C@@]3(C)C[C@H](O)[C@@]12F` [TRIAMCINOLONE], the GI50 was inactive: > 100 µM.
In the case of `NC(=S)N/N=C/c1ncccc1N` [TRIAPINE], the GI50 is inactive: 3.46 µM.
In the case of `CCCC(=O)OCC(COC(=O)CCC)OC(=O)CCC` [TRIBUTYRIN] it was inactive: > 100 µM; in that of `O=C(O)CC(CC(=O)O)C(=O)O` [TRICARBALLYLIC ACID], inactive: > 100 µM.
Consider `O[C@H]1[C@H]2[C@H](O)CCCN2C[C@H]1O` [TRIDOLGOSIR], for which the GI50 is inactive: > 100 µM.
In the case of `CC(C)[C@]12O[C@H]1[C@@H]1O[C@@]13[C@@]1(C)CCC4=C(COC4=O)[C@@H]1C[C@@H]1O[C@@]13C2=O` [TRIPTONIDE] it was active: 0.0264 µM.
In the case of `COc1cc2c3c(c4ccc(OC)c(OC)c4c2cc1OC)CN1CCC[C@@H]1C3` [TYLOCREBRINE] it was active: 0.0755 µM.
As for `CC(C)(C)c1cc(C=C(C#N)C#N)cc(C(C)(C)C)c1O` [TYRPHOSTIN A9], the GI50 is active: 0.395 µM.
In the case of `COc1cc2ncnc(Nc3cccc(Cl)c3)c2cc1OC` [TYRPHOSTIN AG-1478] it was active: 0.327 µM.
Take `O=c1ccc2ccc(O)cc2o1` [UMBELLIFERONE]: the GI50 is inactive: > 100 µM.
On to `C=CCCCCCCCCC(=O)O` [UNDECYLENIC ACID], for which the GI50 is inactive: 21.4 µM.
The same measure for `Oc1ncc(N(CCCl)CCCl)c(O)n1` [URACIL MUSTARD]: inactive: 115 µM; for `O=c1cc[nH]c(=O)[nH]1` [URACIL]: inactive: 632 µM; for `COc1cc(O)c(Cc2ccccc2O)c(O)c1C(=O)CCc1ccccc1` [UVARETIN]: inactive: 6.92 µM.
With `COc1cc(C=O)ccc1O` [VANILLIN], the GI50 is inactive: > 100 µM.
The same measure for `Cc1c([C@H](C)[C@@H]2NC[C@@H](C)C[C@H]2O)ccc2c1C[C@H]1[C@H]2CC=C2C[C@@H](O)CC[C@@]21C` [VERATRAMINE]: inactive: 11.9 µM; for `COc1ccc(C(=O)O[C@H]2CC[C@@]3(C)[C@@H]4CC[C@H]5[C@]6(O)C[C@H](O)[C@@]7(O)[C@@H](CN8C[C@@H](C)CC[C@H]8[C@@]7(C)O)[C@]6(O)C[C@@]53OC24O)cc1OC` [VERATRIDINE]: inactive: > 100 µM.
`CC[C@]12CN3CCc4c([nH]c5ccccc45)[C@@](C(=O)OC)(c4cc5c(cc4OC)N(C)[C@H]4[C@@](O)(C(=O)OC)[C@H](OC(C)=O)[C@]6(CC)C=CCN7CC[C@]54[C@@H]76)CC(C3)[C@H]1O2` (stereo partly drawn) [VINLEUROSINE SULFATE]: the GI50 was active: < 0.01 µM.
Take `COc1cc(C/C=C/c2ccccc2)c(OC)cc1O` [VIOLASTYRENE]: the GI50 was inactive: 44.4 µM.
For `NCCCNCCS` [WR-1065], the GI50 was inactive: > 100 µM.
As for `Nc1nc(N)c2cc(Sc3cccc(C(F)(F)F)c3)ccc2n1` [WR-159412], the GI50 was inactive: 3.13 µM.
As for `[C-]#[N+]C(=C\c1ccc(O)cc1)/C(=C/c1ccc(O)cc1)[N+]#[C-]` [XANTOCILLIN], the GI50 is inactive: 2.18 µM.
As for `Cc1cn([C@H]2C[C@H](N=[N+]=[N-])[C@@H](CO)O2)c(=O)[nH]c1=O` [ZIDOVUDINE], the GI50 was inactive: 99.8 µM.
The same measure for `CCn1c(-c2ccc(OC(C)=O)cc2)c(C)c2cc(OC(C)=O)ccc21` [ZINDOXIFENE]: inactive: 28.9 µM.
